Measured values reported in the supplement of paper PMC10441789.
The list shows a part of the results. Antibody binding of pooled human sera (four to six donors per pool; dilution not stated) to peptides of the Trypanosoma cruzi antigen TSSA on microarrays. Quantile-normalised fluorescence in arbitrary units, mean of duplicate arrays; higher = more binding. No active / inactive call. The uninfected pools are read here as the healthy donors of the same country. The strongest signals lie near the top of the scale (about 60,000).

Legend:
Test in all cases: antibody binding signal (normalised fluorescence) (arbitrary fluorescence units); higher = stronger serum antibody binding to peptide
[1] = system: pooled sera of chronic Chagas disease patients, Argentina
Description: (§1)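 Microarray of 15-residue peptides over residues 30-55 of Trypanosoma cruzi TSSAII, each with 1 to 10 substitutions at naturally variable positions, probed with one serum pool per country.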

[2] = system: pooled sera of chronic Chagas disease patients, Bolivia
Description: as §1

[3] = system: pooled sera of chronic Chagas disease patients, Brazil
Description: as §1

[4] = system: pooled sera of chronic Chagas disease patients, Colombia
Description: as §1

[5] = system: pooled sera of chronic Chagas disease patients, Mexico
Description: as §1

[6] = system: pooled sera of chronic Chagas disease patients, USA
Description: as §1

[7] = system: pooled sera of uninfected people, Argentina
Description: as §1

[8] = system: pooled sera of uninfected people, Bolivia
Description: as §1

[9] = system: pooled sera of uninfected people, Brazil
Description: as §1

[10] = system: pooled sera of uninfected people, Mexico
Description: as §1

[11] = system: pooled sera of uninfected people, USA
Description: as §1

Sequence | antibody binding signal [1] | antibody binding signal [2] | antibody binding signal [3] | antibody binding signal [4] | antibody binding signal [5] | antibody binding signal [6] | antibody binding signal [7] | antibody binding signal [8] | antibody binding signal [9] | antibody binding signal [10] | antibody binding signal [11]
SGTDNKAAAGETPSQ | 296 | 383 | 41200 | 405 | 200 | 226 | 87.1 | 642 | 1250 | 138 | 171
SGTDNKPATGGAPSQ | 7330 | 14900 | 45500 | 3070 | 693 | 2890 | 246 | 1260 | 467 | 348 | 250
KAATGGTPSQSGASS | 536 | 335 | 302 | 396 | 358 | 194 | 506 | 157 | 232 | 207 | 167
GKDNKTATGGTPSQP | 1620 | 350 | 1060 | 5190 | 4500 | 3070 | 390 | 138 | 147 | 525 | 136
EKKAAAGGTPSQSGA | 700 | 650 | 269 | 4670 | 410 | 1720 | 170 | 422 | 1920 | 136 | 574
KKTATGGAPSPPGAS | 580 | 275 | 309 | 1760 | 243 | 564 | 394 | 247 | 96.9 | 175 | 361
GKEKKTATGGAPSQP | 2470 | 267 | 486 | 3150 | 2610 | 1950 | 241 | 82.6 | 107 | 120 | 115
STPPSGKDKKTAAGE | 10500 | 3700 | 3900 | 572 | 36200 | 1840 | 388 | 525 | 390 | 113 | 128
SGKDNKAATGGTPSP | 892 | 440 | 724 | 1370 | 983 | 952 | 183 | 215 | 142 | 72.7 | 168
KKPATGEAPSPPGAS | 21100 | 17700 | 40200 | 169 | 245 | 31900 | 930 | 890 | 171 | 88.7 | 594
GTDNKAATGETPSPP | 4090 | 6020 | 35400 | 227 | 239 | 13400 | 122 | 633 | 1120 | 165 | 1100
KDKKTATGETPSQSG | 342 | 279 | 832 | 317 | 309 | 4520 | 163 | 106 | 113 | 79.2 | 112
GKDKKPAAGETPSPS | 509 | 332 | 398 | 892 | 878 | 1410 | 121 | 165 | 101 | 78.2 | 333
PSGKDKKTAAGGTPS | 2580 | 466 | 2100 | 8750 | 4880 | 4480 | 123 | 285 | 265 | 121 | 104
KEKKTAAGGAPSQPG | 192 | 540 | 725 | 2820 | 220 | 260 | 115 | 101 | 103 | 102 | 125
STPPSGKDNKAAAGE | 40000 | 25200 | 11500 | 156 | 36400 | 3930 | 419 | 921 | 172 | 119 | 132
TDKKAAAGGAPSPPG | 1310 | 290 | 219 | 5720 | 593 | 992 | 222 | 146 | 226 | 153 | 141
GKENKTATGGTPSQP | 3720 | 531 | 10200 | 9700 | 8240 | 14800 | 617 | 109 | 160 | 744 | 116
SGTENKAATGETPSQ | 25800 | 22400 | 31800 | 172 | 223 | 15600 | 551 | 404 | 159 | 187 | 160
ENKAATGGAPSPSGA | 702 | 1580 | 3170 | 745 | 472 | 2350 | 320 | 149 | 272 | 181 | 145
TDNKAATGEAPSQPG | 27200 | 41700 | 44400 | 154 | 187 | 29100 | 255 | 248 | 202 | 105 | 105
GKENKPAAGGAPSQP | 6770 | 1320 | 20100 | 12700 | 16500 | 13400 | 614 | 124 | 129 | 139 | 124
NKTAAGGTPSQSGAS | 1730 | 228 | 1950 | 6150 | 1380 | 1580 | 911 | 965 | 1410 | 2290 | 1040
GTEKKTAAGGAPSPS | 359 | 309 | 197 | 7940 | 1100 | 964 | 222 | 420 | 159 | 140 | 153
GKEKKPAAGETPSQP | 7880 | 408 | 22600 | 5640 | 6050 | 5810 | 86.5 | 135 | 97.3 | 81.4 | 317
GKDKKAAAGEAPSPS | 267 | 239 | 285 | 594 | 611 | 9300 | 179 | 78.6 | 98.1 | 77.1 | 94
TSSTPPSGTDNKTAA | 38000 | 48800 | 52500 | 1290 | 13900 | 22100 | 3710 | 764 | 1930 | 239 | 648

Sequence | antibody binding signal [1] | antibody binding signal [2] | antibody binding signal [3] | antibody binding signal [4] | antibody binding signal [5] | antibody binding signal [6] | antibody binding signal [7] | antibody binding signal [8] | antibody binding signal [9] | antibody binding signal [10] | antibody binding signal [11]
EKKTAAGGTPSPPGA | 495 | 265 | 260 | 9960 | 458 | 1980 | 143 | 728 | 908 | 156 | 768
SGTENKPATGGTPSP | 43400 | 21300 | 37200 | 485 | 1490 | 8480 | 867 | 1830 | 509 | 382 | 183
TENKPAAGGTPSPSG | 44500 | 849 | 1670 | 1180 | 741 | 282 | 200 | 784 | 887 | 217 | 219
TPPSGKENKTATGEA | 8050 | 10000 | 5760 | 388 | 1340 | 2300 | 735 | 870 | 365 | 198 | 136
NKPAAGGTPSQSGAS | 223 | 242 | 2360 | 1620 | 356 | 255 | 620 | 905 | 1470 | 792 | 1180
TDNKPATGEAPSQPG | 40600 | 41400 | 46300 | 391 | 224 | 43100 | 580 | 553 | 507 | 336 | 124
TENKTAAGETPSQSG | 15200 | 506 | 2680 | 119 | 206 | 1740 | 164 | 214 | 210 | 259 | 112
TENKPAAGETPSQPG | 42500 | 4180 | 38000 | 314 | 400 | 4970 | 155 | 950 | 217 | 137 | 156
TEKKAATGGTPSQSG | 1110 | 521 | 839 | 1240 | 1720 | 2000 | 470 | 186 | 791 | 268 | 256
DNKAATGGAPSPPGA | 614 | 430 | 1870 | 544 | 415 | 1700 | 364 | 214 | 252 | 280 | 150
GKENKTAAGGTPSPS | 1820 | 255 | 5930 | 4470 | 2830 | 12400 | 319 | 91.1 | 310 | 530 | 126
GKEKKPATGGAPSQS | 2780 | 280 | 637 | 1700 | 4030 | 3280 | 204 | 194 | 94.5 | 96 | 245
TPPSGKENKPAAGEA | 27100 | 40000 | 13200 | 528 | 10100 | 13300 | 1660 | 2100 | 426 | 304 | 425
KAATGGAPSPPGASS | 689 | 192 | 330 | 304 | 358 | 861 | 430 | 154 | 104 | 97.2 | 132
KPATGETPSPSGASS | 29600 | 27500 | 27300 | 232 | 3270 | 21700 | 251 | 620 | 331 | 1580 | 720
KENKAATGGTPSQPG | 401 | 421 | 3650 | 1030 | 313 | 1380 | 410 | 86.5 | 256 | 541 | 193
TDNKTAAGGAPSPSG | 286 | 273 | 425 | 4900 | 484 | 419 | 327 | 259 | 521 | 412 | 222
GTDNKTATGGAPSPP | 490 | 357 | 23300 | 669 | 441 | 852 | 373 | 526 | 1550 | 188 | 209
SGKDKKTATGEAPSQ | 10800 | 4050 | 9410 | 522 | 609 | 14500 | 213 | 105 | 94.3 | 82.6 | 89.9
PSGTEKKTATGGTPS | 11700 | 875 | 3430 | 5500 | 4620 | 4970 | 531 | 299 | 229 | 215 | 367
GKENKPAAGETPSQS | 6900 | 1560 | 23200 | 12400 | 10400 | 13600 | 841 | 467 | 187 | 287 | 129
TDNKTATGGAPSQSG | 445 | 766 | 844 | 454 | 380 | 302 | 324 | 326 | 355 | 498 | 154
ENKPATGGAPSQPGA | 2390 | 15400 | 32100 | 372 | 900 | 4690 | 397 | 1060 | 338 | 313 | 372
SGKDKKAATGEAPSP | 18500 | 16800 | 18300 | 549 | 697 | 19000 | 307 | 97.9 | 94.8 | 86.4 | 126
SGTEKKTAAGETPSP | 277 | 395 | 782 | 526 | 470 | 2160 | 120 | 420 | 236 | 194 | 474
SSTPPSGTDKKTAAG | 28600 | 8130 | 32100 | 5240 | 30300 | 4010 | 479 | 158 | 186 | 1000 | 221
